Data: the supplement of paper PMC11417369
Some of the results follow.

System: PF3D7_0420300 AP2 domain 1 (GST-tagged)
Assay: gcPBM binding intensity (ln(normalized median fluorescence intensity)); higher = stronger DNA binding
Method in brief: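 Binding intensity is the highest Masliner-normalised natural-log median intensity over replicate spots in either probe orientation. To obtain it, GST-tagged P. falciparum DNA-binding domains made in E. coli were incubated for 1 h on an Agilent 4 × 180k array of primer-extended double-stranded 36-bp intergenic genomic probes plus negative controls. Detection used Alexa488 anti-GST antibody with scanning at 488 nm.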

Sequence | gcPBM binding intensity (ln)
TTTATATATTTTGTCGTGCACATTTGGAAAATTACA [GTGCAC_site9776] | 9.22
AATAAATAAATAAATAAATATATATATATATATATA [GTGCAC_negctrl_site224] | 9.07
TTATATTAAAAAAGATGTACGTTTAGGAAAAATATA [XGTACX_site7456] | 9.09
CTTGAAAAAATAAAAACACACAATGTGTTTTTGAAT [CACACA_site3283] | 9.18
ATAAAAATAAACATACGTACTTACACGAATATACAT [XGTACX_site5989] | 9.55
TTAGATTTAAATATCATACACACTTTATATATAATA [CACACA_site959] | 9.29
ATATTACTATATTATTGTACGTTAAAAAAAAAAAAT [XGTACX_site8734] | 9.22
TTTCTAAATAATTATAATGAATCTGCAAACAAGCAT [XGTACX_negctrl_site391] | 8.9
TATAATAATCTAATCTGTAGTTTTTTTTTTTTTTTT [CACACA_negctrl_site1206] | 9
GGCTTTTTTTAATATGCACACATATATTTTATATAT [CACACA_site8647] | 9.46
AAAAAAAAACAGAAAACACACAAATTATCTTATAAT [CACACA_site4326] | 9.71
TGTATATATATCTCAGTGCATTGCAAATTAAAAATT [GTGCAC_site9646] | 8.99
ATACTCACGTGACACACACACAATATAAATAAATAT [CACACA_site7862] | 10
GCTTGTACATTTTTAAAAAATGACTTCGAAAGGAAT [CACACA_negctrl_site453] | 8.92
TTCCTTATTATTATTTTACACACGTCCTAATAAGAG [CACACA_site8364] | 9.49
TTTATGCATAGAGAAACATGCAAGAAAGATGCAAAA [TGCATGCA_site726] | 9.03
ATTATGTATACATAAACACACATATTTATAAAAAAA [CACACA_site6261] | 9.37
ATATATTTATATATATGTACATATTATGTTAAGAAA [XGTACX_site1111] | 9.08
TATGTATTCATATGTTGTACATTATATATAATAAGT [XGTACX_site6589] | 9.16
AGCACACAAAAAAAAAAAAAAAAAAAAAAAGGAATG [GTGCAC_negctrl_site73] | 9.15
AAATCAGAACCTATTTGTACATATACAAAAATGATT [XGTACX_site2421] | 9.16
CATATGTAGGGAACAATATAATATGCTTTGAATATG [GTGCAC_negctrl_site524] | 9.24
TTTTAATTAGCTAGACGTACAATAATATACAAATAT [XGTACX_site6068] | 9.11

Sequence | gcPBM binding intensity (ln)
ATTTTTTTAAGATAAGAAAAATAAAGTGTGGATATT [XGTACX_negctrl_site476] | 9.22
TATTAACAAATTTATGTGCACTGAGGACAAATATAT | 9.43
ATTTATATCTCCATATGTTCAAAACTTTCACAAATA [TGCATGCA_negctrl_site108] | 9.07
AAAATAAGTAATTACTAATATATAAATTAATAATTA [CACACA_negctrl_site1602] | 9.15
AATATAAATTAATTTACACACTAAAAAATATATATA [CACACA_site3778] | 9.39
TTTATTAATAAACACACACACACACCCAAAATAAAA [CACACA_site7966] | 10.2
TTTTCTTCATAAATGCTGCACTGGTTTAAGCATGAT | 8.88
AAATAGAAGAAATATGCACACATACATTGAAATGTT [CACACA_site7996] | 9.46
AAAGAAAAAAAAATTACACACATATATTATATATAT [CACACA_site3211] | 9.52
CCTTAATATTTTTGAAGTACATATTTATTTTACAAG [XGTACX_site3049] | 9.14
TTAATATGAAATAAATGTACATAATACATAATAAAA [XGTACX_site6194] | 9.29
GTTTTTAGTATTTTTTGTACTTAATACATAGCCTTA [XGTACX_site7318] | 9.23
AATTGAAAAATATATAAGAAGAAATATATATATGTT [GTGCAC_negctrl_site97] | 9.32
AACACGCGCGGACACACACACACACCCACATATATA [CACACA_site5252] | 10.4
ACCATATAAATAAACACACACACACCGATATATATA [CACACA_site5310] | 10.1
AAAAAACAAAAAAAAAAAAAAATAATACAATATAAT [CACACA_negctrl_site1630] | 9.49
TATAATGAACATATGTGTACATATATTTTTTAAATT [XGTACX_site8736] | 9.11
GCACAACATATATTATCACACACATATATATATATA [CACACA_site8619] | 9.74
CAAAAGAATATATGTAGTACATGTTGTAGATAATAT [XGTACX_site1044] | 9.46
CGCGAAGTAGCATTCACACACAGCAAAATATAAATA [CACACA_site7608] | 9.6
TCAGATATATAGAATACACACATGGATATAAGAAAT [CACACA_site7831] | 9.77
TTTTTGTAATATTATGATGTCATATATATATATATA [XGTACX_negctrl_site618] | 9.12
ATATTTTGTAACTATACACACATATATATATTATAA [CACACA_site3062] | 9.56

Sequence | gcPBM binding intensity (ln)
AAATTGGGTACAAATACACACACATATATATATTAA [CACACA_site8745] | 9.83
ATAGATCCTAATGTTGTGCACATGTAAATTAATATA | 9.3
TTTATACAATAAAATGCATGCAAGTATCTATTTTAT [TGCATGCA_site210] | 9.23
ATCATATAAACATATTGTACTTAAATACATAATATT [XGTACX_site3800] | 9.13
CAAACCCACGGACACACACACACAAAAATGATTAAA [CACACA_site5365] | 9.93
TTTATTTATTTATGTGGTACTTCAAAAATATATACT [XGTACX_site355] | 9.32
GGATACGCTTTTGTACCACTCCCCCTTTTGGGAATA [CACACA_negctrl_site1363] | 9.07
ATATATATATATAGTGCACACTTAAGAATATAAAGA [CACACA_site4771] | 9.43
TGTTATATAATTTAGCGTACAGGTTATAGGACGGAT [XGTACX_site8823] | 9.51
AACTATTACTTTCTTTCACACATTTTTTTTTTTTTT [CACACA_site5355] | 9.66
AACTCTTAGAATGACGGTACAGTATAATAGGTGAAC [XGTACX_site7163] | 9.4
ATATAATGAATTATTAGAAAATAAAATGAATAAAGT [CACACA_negctrl_site690] | 9.58
GATTTTTAAAATATCACACATAAAAAAAAAAAAAAA [CACACA_site5516] | 8.64
AAAAAAATTCTGACTTGTACATATAAAATTTACAAA [XGTACX_site4408] | 8.78
TTTGTCATTTTATTATGTACTCAGCATATAGGGGGG [XGTACX_site505] | 10.5
TAATTTAATAATTAGACACACATGTGGAAAATAAAA [CACACA_site5401] | 9.46
ACATATATATAAAGGTGTACACATATATATATATAT [XGTACX_site4779] | 9.37
TAAGAAAAAAGTAAATGTACAGAGAAAATTATCTAT [XGTACX_site7374] | 9.39
ATTTATTACAAATGAATGCACTATATCTTAATTTTG | 9.17
ATAATTTTGATTATCACACATATATATATATATATG [CACACA_site5882] | 9.24
ATATATTTCCTGAGGAGTACTATGAAAGACAAAAAA [XGTACX_site5628] | 9.21
TAATCTCATAAAACCGCACACACATAAAATTTGCAT [CACACA_site3890] | 9.79
TTTTTAATAATCTCTCAAAATGTTCTTATATTTTAC [CACACA_negctrl_site1691] | 9.03

Sequence | gcPBM binding intensity (ln)
GAGAAATGGGGACACACACACATATTATAGATATAT [CACACA_site6829] | 10.1
TTGTTTGATATCTTTGTCACGAAAAAAATATATATA [GTGCAC_negctrl_site54] | 9.04
TAAGGATAAAATAAATGTACATATGTAAAATTATTA [XGTACX_site4170] | 9.21
ATACTAAAGAAACACACACACATATATATATAGAAT [CACACA_site100] | 10.3
TTTACACCCTAAAAATGTACAAGAAAGATTATATTA [XGTACX_site1102] | 9.03
TTAACAGTAAAACACAGTACATATATACTTAAAACA [XGTACX_site1930] | 9.37
ATTTTTTTCCTAATGGTGCGAATAAATATCCATACC | 9.13
AAAGCTTACATATACACACATACATAAATTCATAAA [CACACA_site2469] | 9.59
TTTTTTTATTATACTAGTACATATATATACAGCACA [XGTACX_site3464] | 9.24
AAAAAAAAAAAAGGAACACACAAGTAACAATAAATT [CACACA_site2481] | 9.98
TTTTCCTTTACATAATGTACACAAAAAAAAAAAAAA [XGTACX_site716] | 8.81
GTTACTGCATACATAACACACATATTCAAAACCCAT [CACACA_site5856] | 9.62
AATACAGACAGACACACACACAAAATAAAATACAAA [CACACA_site245] | 10.1
TCTTTTTTTTGAATTTGTACATAAGACAATAAAAAA [XGTACX_site4682] | 8.69
CATCATAGAGTGGAGTGTACAAATATGTCAACATAT [XGTACX_site2264] | 9.23
GTCTATAACTATTGCGCACACTTTAAAAAAAAAGAA [CACACA_site1003] | 9.27
TATATATATATATAATGTACATAATAATAATACATC [XGTACX_site5587] | 9.44
TAGAAGCATTGACACACACACATACATACACATACA [CACACA_site6802] | 10.1
CTAGACTTTATTAATTGTACATATGTGTATTTTATA [XGTACX_site480] | 9.26
ATATTAAGGTTTATATTTTAACTTATTATTTTATTC [CACACA_negctrl_site795] | 9.3
